# Laboratory results: PubChem BioAssay AID686971 (National Center for Advancing Translational Sciences (NCATS), 2013)
# “And” between values parts separate entries of the source, which are not always exact repeats. Identical values can stand only once. The whole screen tested about 360,000 compounds, of which about 7,500 (2.1%) were called active. This list was built around the results that the source calls inconclusive (neither active nor inactive); the mix of calls is not that of the screen. Calls follow the shape of the dose curve; as a rule, active = well fitted cell-killing curve with a large enough effect; inconclusive = small, poorly fitted or top-dose-only effect, or effect the other way, or another doubt; inactive = no such curve, though single readings can be large or run the other way. No potency is given beside an inconclusive call; the fits are too rough.
# Assay: qHTS for induction of synthetic lethality in tumor cells producing 2HG: qHTS for the HT-1080-IDH1KD cell line;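 as to activity, negative = toxicity: 0% = DMSO wells and -100% = cell-free medium wells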
# Details: HT-1080 IDH1 knockdown viability, ATP luminescence, 48 h; activity, negative = toxicity: at 46.1 µM (top of the series) unless noted
# Outline: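 CellTiter-Glo luminescence after 48 h compound exposure at 37 degrees C of IDH1-knockdown HT-1080 cells in 5% FBS RPMI. %Activity scaled between DMSO wells and cell-free media wells, with curves fitted and assigned curve classes.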
# Potency is read from the fitted curve at half-maximal effect; tags tell the direction and shape of the fitted curve.
SMILES,Potency,"activity, negative = toxicity"
O=C(NCc1ccc2c(c1)OCO2)c1cc([N+](=O)[O-])ccc1N1CCOCC1,"inconclusive [cytotoxic, partial curve]",
CCN(CC)CCN(C(=O)c1ccc2c(c1)CCCC2)c1nc2c(OC)cccc2s1,"inconclusive [cytotoxic, partial curve]",
NC(=O)c1nsc(C(=O)N(c2ccccc2)C(C(=O)NC2CCCC2)c2ccncc2)c1N (stereo not drawn),,inactive: -14.4%
CC(=O)Nc1ccc(S(=O)(=O)N2CCCC(C(=O)N3CCN(c4ccccc4)CC3)C2)cc1 (stereo not drawn),,inactive: -1.49%
CCc1c(C)nc2ncnn2c1N1CCCC(C(=O)NCc2ccco2)C1 (stereo not drawn),,inactive: 5.3%
CC(C)C1Oc2ccccc2N(CC(=O)NC2CCCCC2)C1=O (stereo not drawn),"inconclusive [cytotoxic, single point]",
Cc1ccccc1CNC(=O)C1CCC(=O)N(C2CCCCCC2)C1 (stereo not drawn),,inactive: -1.77%
CCN(CC)Cc1ccc(NC(=O)c2sc3cc(Cl)ccc3c2Cl)cc1,active: 23.1 µM,
COc1ccc(OC)c(NC(=O)CN2CCC(C(=O)c3ccc(C)cc3)CC2)c1,"inconclusive [cytotoxic, single point]",
CCc1ccc(N(C(C)=O)C2C=CS(=O)(=O)C2)cc1 (stereo not drawn),,inactive: -0.0087%
CCOC(=O)c1nnn(-c2nonc2N)c1COc1cc(C)c(Cl)c(C)c1,"inconclusive [cytotoxic, single point]",
c1coc(CNc2nc3nonc3nc2NCc2ccco2)c1,"inconclusive [cytotoxic, partial curve]",
CCCCC1Cc2[nH]c(=S)[nH]c(=O)c2C(c2ccc(C(C)C)cc2)O1 (stereo not drawn),,inactive: 5.27%
COc1ccc(-c2ocnc2C(=O)NCc2nn(-c3ccccc3)nc2C)cc1,active: 16.4 µM,
CCCCN(CC)CCNC(=O)c1cc2c(=O)[nH]c3ccc(C)cc3c2s1,active: 18.4 µM,
COC(=O)C1CCN(Cc2ccc(OCCCN3CCN(c4ccc([N+](=O)[O-])cc4)CC3)cc2)CC1,active: 14.6 µM,
C=CCc1ccc(OCC(O)CN2CCc3ccccc3C2)c(OC)c1 (stereo not drawn),"inconclusive [cytotoxic, single point]",
O=C1c2c(O)ccc(O)c2C(=O)c2c(NCCNCCO)ccc(NCCNCCO)c21,active: 2.31 µM and active: 23.1 µM,
O=C(CSc1nc(Nc2ccccc2)nc(N2CCOCC2)n1)Nc1cc(Cl)ccc1O,active: 18.4 µM,
COc1ccccc1CNc1nc(NCc2ccc(C(C)C)cc2)c2sccc2n1,active: 18.4 µM,
CCOC(=O)Nc1ccc2c(c1)C(=NNC(N)=S)c1ccccc1-2,"inconclusive [cytotoxic, single point]",
Cc1cc(N2CCN(S(=O)(=O)c3ccccc3)CC2)c2ccccc2n1,"inconclusive [cytotoxic, single point]",
Cc1ccc(C(=O)NNC(=S)NC(=O)c2ccco2)cc1,"inconclusive [cytotoxic, partial curve, poor fit]",
O=c1[nH]c2cc3c(cc2cc1CN(Cc1cccnc1)Cc1nnnn1Cc1ccco1)OCCO3,"inconclusive [cytotoxic, single point]",

SMILES,Potency,"activity, negative = toxicity"
CN(C)c1ccc(-c2ccnc3c2CC(C)(C(=O)NCC2CC2)O3)cc1 (stereo not drawn),,inactive: 0.672%
COc1cc(NC(=O)Nc2nc(C(N)CCc3ccccc3)cs2)cc(OC)c1OC (stereo not drawn),"inconclusive [cytotoxic, single point]",
COc1ccc(/C=C/c2ccncc2)c2ccccc12,"inconclusive [cytotoxic, single point]",
CC(C)C(=O)N1CCCCCCN1C(=O)C(C)C,,inactive: -0.165%
COc1ccc(Cn2c(-c3ccc(C)cc3)c[n+]3ccccc23)cc1,active: 1.16 µM,
Cc1ccc(-c2nc3ccccc3n3nnnc23)cc1,,inactive: 2.43%
CNC[C@H](Cc1ccccc1)NC[C@@H](Cc1cccc2ccccc12)NCCc1ccc(C)cc1,"inconclusive [cytotoxic, single point]",
COc1ccc(CCNCc2c(OC)ccc3ccccc23)cc1OC,"inconclusive [cytotoxic, single point]",
O=C(Cc1nnc(NC(=O)Nc2ccccc2F)s1)NCc1ccccc1,"inconclusive [cytotoxic, single point]",
Cc1c(N/C=C/C(=O)c2cccs2)c(=O)n(-c2ccccc2)n1C,"inconclusive [cytotoxic, full curve]",
O=C(CN1CCN(c2ccc(O)cc2)CC1)Nc1ccccc1C(=O)NCCc1ccccc1,,inactive: -0.139%
COc1ccccc1C(=O)Nc1ccc2c(c1)nc(CCNC(C)=O)n2C,,inactive: 14.3%
O=C(OCc1nc2scc(-c3ccccc3)c2c(=O)[nH]1)c1ccco1,,inactive: 17.3%
C/C(=N/NC(=O)c1ccccn1)c1ccc(O)cc1,,inactive: -4.8%
COc1cc(CNC2CCCC2)cc(Cl)c1OCc1ccccc1F,active: 12.6 µM,
Cc1cc(N2CCN(C)CC2)nc2ccc(NC(=S)N3CCC4(CC3)OCCO4)cc12,,inactive: 11.4%
O=C(NCc1ccc2c(c1)OCO2)c1nc(S(=O)(=O)Cc2ccccc2F)ncc1Cl,"inconclusive [cytotoxic, single point]",
COc1cc(NC(=O)Cn2ncc(Cl)c(Cl)c2=O)c(C)cc1[N+](=O)[O-],active: 2.59 µM,
O=C1c2ccccc2OC2(C=Cc3ccccc3O2)N1Cc1ccccc1 (stereo not drawn),active: 18.4 µM,
CNc1nc(Oc2ccc3sc(C)nc3c2)c2sccc2n1,"inconclusive [cytotoxic, single point]",
COCCNc1nc(NCc2cccc(OC)c2)c2sc(-c3ccccc3)cc2n1,"inconclusive [cytotoxic, single point]",
OC(CN(c1ccccc1)c1ccccc1)Cn1cnc2ccccc21 (stereo not drawn),"inconclusive [cytotoxic, partial curve]",
Clc1ccc(CSc2nnc(-c3c[nH]c4ccccc34)o2)cc1,"inconclusive [cytotoxic, single point]",
C[C@H]1CN([C@@H](C)CO)C(=O)Cc2cc(NC(=O)CCC(F)(F)F)ccc2O[C@H]1CN(C)Cc1ccc(-c2ccccc2)cc1,active: 20.6 µM,
